Measurements: PubChem BioAssay AID1347073 (National Center for Advancing Translational Sciences (NCATS), 2019)
The whole screen tested about 45,000 compounds, of which about 200 (0.44%) were called active. Inconclusive results (about 7%) are left out. Calls come from the whole dose curve; as a rule, active = well fitted activation curve with a large enough effect; inconclusive = small, poorly fitted or top-dose-only effect; inactive = no such curve, though single readings can be large or run the other way. This is one part of the list.

Test: qHTS of TDP-43 Inhibitors: NCGC Sytravon Library Screen; note: 0% is about no effect; nearly all actives have a fitted effect of over 55% in size
Conditions: yeast TDP-43 toxicity rescue, BacTiter-Glo growth, 24 h; series mostly up to 46.1 µM; growth rescue (activation): at the top concentration
Summary of the method: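 TDP-43-expressing yeast, pregrown in raffinose, seeded at OD600 0.02 in galactose medium with compound for 24 hr at 30 deg C. Growth read by BacTiter-Glo luminescence, so rescue of toxicity appears as activation.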

Row | Compound | growth rescue (activation)
1 | CCOC(=O)C1(CCc2ccccc2)CCN(Cc2cnc(N(C)C)s2)CC1 | inactive: 7.23%
2 | COc1ccc(CC(=O)NCc2nnc(SCC(=O)c3ccc(OC)cc3)n2C)cc1 | inactive: -2.05%
3 | O=C1NC(=O)/C(=C\c2ccc(N3CCOCC3)o2)N1 | inactive: -9.82%
4 | N=c1c2c3c(sc2ncn1Cc1ccccc1)CCCC3 | inactive: 3.92%
5 | CCC(=O)Nc1ccc(NC(=S)Nc2ccccc2)cc1 | inactive: 17.3%
6 | COCCn1c(=N)c(C(=O)NCc2ccco2)cc2c(=O)n3cc(C)ccc3nc21 | inactive: 3.56%
7 | CC(=O)N1C(=O)NC2=C(C(=O)CCC2)C1c1cccc([N+](=O)[O-])c1 (centres undefined) | inactive: 13.5%
8 | O=C(CSc1nnc(-c2cccnc2)o1)N1CCCCC1 | inactive: 1.86%
9 | CCN1CSC(=S)N(Cc2ccccc2)C1 | inactive: -13.2%
10 | CC(C)N(CCNC(=O)c1oc(=O)c2ccccc2c1-c1ccccc1)Cc1ccco1 | inactive: 15.6%
11 | O=C(COC(=O)[C@@H]1CCCN1S(=O)(=O)c1ccccc1F)c1ccccc1 | inactive: 19.5%
12 | Cc1ccnc(SCC(=O)c2cccs2)n1 | inactive: -4.63%
13 | CCCOP(=O)(c1ccc(N(C)C)cc1)C(O)c1ccc(N(C)C)cc1 (centres undefined) | inactive: -12.3%
14 | CC(C)Oc1ccc(CN2CCC2(C)C(=O)NCc2cccc3ccccc23)cc1 (centres undefined) | inactive: 10.6%
15 | CCOC(=O)CC(NS(=O)(=O)c1ccc(OC)c(OC)c1)c1cccc([N+](=O)[O-])c1 (centres undefined) | inactive: 18.5%
16 | CCOC(=O)c1c(NC(C)=O)c2c3c(sc2n1Cc1nc(-c2cccc(C)c2)oc1C)CCCC3 | inactive: 13.8%
17 | COc1cccc(NC(=O)NCCc2ccc(Cl)cc2)c1 | inactive: 23.8%
18 | COc1ccc(NC(=O)CSc2n[nH]c(=O)n2Cc2ccccc2)cc1Cl | inactive: 16.9%
19 | CSCC(=O)N1CCCC(CNC(=O)c2ccccc2Cl)C1 (centres undefined) | inactive: -17%
20 | O=C(Nc1ccc(S(=O)(=O)N2CCOCC2)cc1)c1c(F)cccc1F | inactive: 6.14%
21 | COc1ccc(CCC(=O)N2CCCC(Nc3ccccc3)C2)cc1OC (centres undefined) | inactive: 9.61%
22 | CCN(CC)S(=O)(=O)c1ccc2c(c1)N(CC(=O)N(CCc1ccncc1)C(C)C)C(=O)CO2 | inactive: 9.42%
23 | CN(Cc1ccon1)C(=O)CCc1nnc(Cc2ccc(-c3ccccc3)cc2)o1 | inactive: 10.9%
24 | COC(=O)c1ccc(OC(=O)c2ccco2)cc1 | inactive: 12.1%
25 | S=C(NCc1ccco1)N1CCN(C/C=C/c2ccccc2)CC1 | inactive: 4.85%
26 | COc1ccc(N(C)C(=O)c2cc(S(=O)(=O)N3CCc4ccccc43)cn2C)c(OC)c1 | inactive: 2.88%
27 | CC(=O)N1CCN(S(=O)(=O)c2ccc(C)cc2)C1C (centres undefined) | inactive: 28.4%

Row | Compound | growth rescue (activation)
28 | O=C(/C=C/c1cccs1)Nc1ccc([N+](=O)[O-])cc1 | inactive: 14.9%
29 | COCCNC(=O)C(c1ccccc1F)N(C(=O)C(=O)NC1CCCC1)C1CCCCC1 (centres undefined) | inactive: 2.91%
30 | C=CCN(C)NC(=O)Nc1ccccc1 | inactive: 1.89%
31 | Cc1ccc(Cl)cc1NC(=O)CCS(=O)(=O)c1ccc2c(c1)n(C)c(=O)c(=O)n2C | inactive: -9.98%
32 | CC(=O)Nc1ccc(N2CCCC(C)C2)c([N+](=O)[O-])c1 (centres undefined) | inactive: 7.1%
33 | S=C(NCC1CCCO1)Nc1ccccc1 (centres undefined) | inactive: 3.16%
34 | Cc1cc(C)c(C#N)c(SCCN2CCCCC2)n1 | inactive: 4.52%
35 | O=Cc1cn(-c2ccccc2)nc1-c1cc2ccccc2oc1=O | inactive: 1.02%
36 | COC(=O)CCN(C(=O)C12CC3CC(CC(C3)C1)C2)c1ccccn1 | inactive: 22.6%
37 | COCCNC(=O)C(c1ccc(OC)cc1)N(Cc1ccco1)C(=O)CCC(=O)Nc1ccccn1 (centres undefined) | inactive: 3.08%
38 | CN(CCO)S(=O)(=O)c1ccc2c(c1)C(=NO)c1cc(S(=O)(=O)N(C)CCO)ccc1-2 | inactive: 1.5%
39 | Cc1ccc(OCCC(=O)OCC(=O)Nc2cc(S(=O)(=O)N(C)C)ccc2C)cc1 | inactive: 13.5%
40 | CC(C)N1CCN(S(=O)(=O)c2ccccc2)CC1 | inactive: -14.3%
41 | Nc1ccccc1SCC(=O)Nc1cccc2ccccc12 | inactive: 23.7%
42 | O=C(CC(=O)c1ccccc1)Nc1ccccc1C(F)(F)F | inactive: -6.58%
43 | O=C(Nc1ccc(C(=O)N2CCOCC2)cc1)c1ccc([N+](=O)[O-])cc1 | inactive: 10.7%
44 | Cc1ccc(NC(=O)COC(=O)C2(c3ccc(Cl)cc3)CCCC2)cc1 | inactive: 16%
45 | Cc1cccc(NC(=S)NNc2cccc(Cl)c2)c1 | inactive: 29.1%
46 | Cc1[nH][nH]c(=O)c1C(c1ccc(-c2ccc(Cl)c(C(=O)O)c2)o1)c1c(C)[nH][nH]c1=O | inactive: -7.99%
47 | Cc1ccc(OCC(=O)NCCCNC(=O)c2ccccn2)cc1C | inactive: 19%
48 | O=C(CNC(=O)c1ccccc1F)OCC(=O)N1CCCCC1 | inactive: 4.78%
49 | CN(CC(=O)Nc1ccc(Cl)c(Cl)c1)C(=O)C1CCC1 | inactive: 8.11%
50 | CC(C)c1nc(SCC(=O)NC2CCCCC2)c2ccccc2n1 | inactive: 16%
51 | COc1ccccc1CCc1nnc(CCC(=O)NCC[C@@H]2C[C@@H]3C=C[C@H]2C3)o1 | inactive: -2.08%
52 | Cn1nc(C(F)(F)F)c(CNC(=O)C(C)(C)CCl)c1N1CCOCC1 | inactive: 19.8%
53 | COc1ccccc1CNC(=O)C1CCN(S(=O)(=O)c2ccc(-n3cnnn3)cc2)CC1 | inactive: 14.1%
54 | CCCCCn1c(=O)[nH]c2cc(C(=O)NCCN3C(C)CCCC3C)ccc2c1=O (centres undefined) | inactive: -2.62%
